# This is one part of the list.
# Key:
# Experiment in all cases: glycan array binding signal (z-score within array); higher = stronger binding
# Settings in all cases: glycan notation: IUPAC condensed, linker removed
# Fuc(a1-2)Gal = target: Fuc(a1-2)Gal
# Summary of the method: (§1)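 Glycan array binding is given as a within-array Z-score, which can be read as non-binding when negative. The arrays, 3228 of them, came from the Consortium for Functional Glycomics database and were retained only where the protein sequence was available. Z-scores were averaged across arrays of the same protein sequence at different concentrations or buffers and across linkers.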
# Fuc(a1-2)Gal(b1-3)GalNAc = target: Fuc(a1-2)Gal(b1-3)GalNAc
# Summary of the method: as §1
# [1] = target: Fuc(a1-2)Gal(b1-3)GalNAc(a1-3)[Fuc(a1-2)]Gal(b1-4)Glc
# Summary of the method: as §1
# [2] = target: Fuc(a1-2)Gal(b1-3)GalNAc(a1-3)[Fuc(a1-2)]Gal(b1-4)GlcNAc
# Summary of the method: as §1
# [3] = target: Fuc(a1-2)Gal(b1-3)GalNAc(b1-3)Gal
# Summary of the method: as §1
# [4] = target: Fuc(a1-2)Gal(b1-3)GalNAc(b1-3)Gal(a1-4)Gal(b1-4)Glc
# Summary of the method: as §1
# [5] = target: Fuc(a1-2)Gal(b1-3)GalNAc(b1-4)[Neu5Ac(a2-3)]Gal(b1-4)Glc
# Summary of the method: as §1
# Fuc(a1-2)Gal(b1-3)GlcNAc = target: Fuc(a1-2)Gal(b1-3)GlcNAc
# Summary of the method: as §1
# [6] = target: Fuc(a1-2)Gal(b1-3)GlcNAc(b1-2)Man(a1-3)[Fuc(a1-2)Gal(b1-3)GlcNAc(b1-2)Man(a1-6)]Man(b1-4)GlcNAc(b1-4)GlcNAc
# Summary of the method: as §1
# [7] = target: Fuc(a1-2)Gal(b1-3)GlcNAc(b1-2)Man(a1-3)[Fuc(a1-2)Gal(b1-3)GlcNAc(b1-2)Man(a1-6)]Man(b1-4)GlcNAc(b1-4)[Fuc(a1-6)]GlcNAc
# Summary of the method: as §1
# [8] = target: Fuc(a1-2)Gal(b1-3)GlcNAc(b1-3)Gal(b1-4)Glc
# Summary of the method: as §1
# [9] = target: Fuc(a1-2)Gal(b1-3)GlcNAc(b1-3)GalNAc
# Summary of the method: as §1
# [10] = target: Fuc(a1-2)Gal(b1-3)GlcNAc(b1-3)[Fuc(a1-2)Gal(b1-3)GlcNAc(b1-6)]GalNAc
# Summary of the method: as §1
# [11] = target: Fuc(a1-2)Gal(b1-3)GlcNAc(b1-3)[Fuc(a1-3)[Gal(b1-4)]GlcNAc(b1-6)]Gal(b1-4)Glc
# Summary of the method: as §1
# [12] = target: Fuc(a1-2)Gal(b1-3)GlcNAc(b1-3)[Gal(b1-4)GlcNAc(b1-6)]Gal(b1-4)Glc
# Summary of the method: as §1
# [13] = target: Fuc(a1-2)Gal(b1-3)GlcNAc(b1-3)[Neu5Ac(a2-6)Gal(b1-4)GlcNAc(b1-6)]Gal(b1-4)Glc
# Summary of the method: as §1
# [14] = target: Fuc(a1-2)Gal(b1-3)GlcNAc6S
# Summary of the method: as §1
# [15] = target: Fuc(a1-2)Gal(b1-3)[Fuc(a1-4)]GlcNAc
# Summary of the method: as §1
# [16] = target: Fuc(a1-2)Gal(b1-3)[Fuc(a1-4)]GlcNAc(b1-2)Man(a1-3)[Fuc(a1-2)Gal(b1-3)[Fuc(a1-4)]GlcNAc(b1-2)Man(a1-3)]Man(b1-4)GlcNAc(b1-4)GlcNAc
# Summary of the method: as §1
# [17] = target: Fuc(a1-2)Gal(b1-3)[Fuc(a1-4)]GlcNAc(b1-2)Man(a1-3)[Fuc(a1-2)Gal(b1-3)[Fuc(a1-4)]GlcNAc(b1-2)Man(a1-6)]Man(b1-4)GlcNAc(b1-4)GlcNAc
# Summary of the method: as §1
# [18] = target: Fuc(a1-2)Gal(b1-3)[Fuc(a1-4)]GlcNAc(b1-2)Man(a1-3)[Fuc(a1-2)Gal(b1-3)[Fuc(a1-4)]GlcNAc(b1-2)Man(a1-6)]Man(b1-4)GlcNAc(b1-4)[Fuc(a1-6)]GlcNAc(b1-4)[Fuc(a1-6)]GlcNAc
# Summary of the method: as §1
# [19] = target: Fuc(a1-2)Gal(b1-3)[Fuc(a1-4)]GlcNAc(b1-2)Man(a1-6)[Fuc(a1-2)Gal(b1-3)[Fuc(a1-4)]GlcNAc(b1-2)Man(a1-3)]Man(b1-4)GlcNAc(b1-4)[Fuc(a1-6)]GlcNAc
# Summary of the method: as §1
# [20] = target: Fuc(a1-2)Gal(b1-3)[Fuc(a1-4)]GlcNAc(b1-3)[Fuc(a1-3)[Gal(b1-4)]GlcNAc(b1-6)]Gal(b1-4)Glc
# Summary of the method: as §1
# [21] = target: Fuc(a1-2)Gal(b1-3)[Fuc(a1-4)]GlcNAc(b1-3)[Gal(b1-4)GlcNAc(b1-6)]Gal(b1-4)Glc
# Summary of the method: as §1
# [22] = target: Fuc(a1-2)Gal(b1-4)Fuc(a1-3)]GlcNAc(b1-2)Man(a1-3)[Fuc(a1-2)Gal(b1-4)[Fuc(a1-3)]GlcNAc(b1-2)Man(a1-6)]Man(b1-4)GlcNAc(b1-4)GlcNAc
# Summary of the method: as §1
# Fuc(a1-2)Gal(b1-4)Glc = target: Fuc(a1-2)Gal(b1-4)Glc
# Summary of the method: as §1
# Fuc(a1-2)Gal(b1-4)Glc6S = target: Fuc(a1-2)Gal(b1-4)Glc6S
# Summary of the method: as §1
# Fuc(a1-2)Gal(b1-4)GlcNAc = target: Fuc(a1-2)Gal(b1-4)GlcNAc
# Summary of the method: as §1
# [23] = target: Fuc(a1-2)Gal(b1-4)GlcNAc(b1-2)Man
# Summary of the method: as §1
# [24] = target: Fuc(a1-2)Gal(b1-4)GlcNAc(b1-2)Man(a1-3)[Fuc(a1-2)Gal(b1-4)GlcNAc(b1-2)Man(a1-6)]Man(b1-4)GlcNAc(b1-4)GlcNAc
# Summary of the method: as §1
# [25] = target: Fuc(a1-2)Gal(b1-4)GlcNAc(b1-2)Man(a1-3)[Fuc(a1-2)Gal(b1-4)GlcNAc(b1-2)Man(a1-6)]Man(b1-4)GlcNAc(b1-4)[Fuc(a1-6)]GlcNAc
# Summary of the method: as §1
# [26] = target: Fuc(a1-2)Gal(b1-4)GlcNAc(b1-2)[Fuc(a1-2)Gal(b1-4)GlcNAc(b1-4)]Man(a1-3)[Fuc(a1-2)Gal(b1-4)GlcNAc(b1-2)Man(a1-6)]Man(b1-4)GlcNAc(b1-4)GlcNAc
# Summary of the method: as §1
# [27] = target: Fuc(a1-2)Gal(b1-4)GlcNAc(b1-3)Gal(b1-4)GlcNAc
# Summary of the method: as §1
# [28] = target: Fuc(a1-2)Gal(b1-4)GlcNAc(b1-3)Gal(b1-4)GlcNAc(b1-2)Man(a1-3)[Fuc(a1-2)Gal(b1-4)GlcNAc(b1-3)Gal(b1-4)GlcNAc(b1-2)Man(a1-6)]Man(b1-4)GlcNAc(b1-4)GlcNAc
# Summary of the method: as §1
# [29] = target: Fuc(a1-2)Gal(b1-4)GlcNAc(b1-3)Gal(b1-4)GlcNAc(b1-3)Gal(b1-4)GlcNAc
# Summary of the method: as §1
# [30] = target: Fuc(a1-2)Gal(b1-4)GlcNAc(b1-3)GalNAc
# Summary of the method: as §1
# [31] = target: Fuc(a1-2)Gal(b1-4)GlcNAc(b1-3)[Fuc(a1-2)Gal(b1-4)GlcNAc(b1-6)]GalNAc
# Summary of the method: as §1
# [32] = target: Fuc(a1-2)Gal(b1-4)GlcNAc(b1-3)[Fuc(a1-3)[Gal(b1-4)]GlcNAc(b1-6)]Gal(b1-4)Glc
# Summary of the method: as §1
# [33] = target: Fuc(a1-2)Gal(b1-4)GlcNAc(b1-6)GalNAc
# Summary of the method: as §1
# [34] = target: Fuc(a1-2)Gal(b1-4)GlcNAc6S
# Summary of the method: as §1
# [35] = target: Fuc(a1-2)Gal(b1-4)[Fuc(a1-3)]GlcNAc
# Summary of the method: as §1
# [36] = target: Fuc(a1-2)Gal(b1-4)[Fuc(a1-3)]GlcNAc(b1-2)Man(a1-3)[Fuc(a1-2)Gal(b1-4)[Fuc(a1-3)]GlcNAc(b1-2)Man(a1-6)]Man(b1-4)GlcNAc(b1-4)GlcNAc
# Summary of the method: as §1
# [37] = target: Fuc(a1-2)Gal(b1-4)[Fuc(a1-3)]GlcNAc(b1-2)Man(a1-3)[Fuc(a1-2)Gal(b1-4)[Fuc(a1-3)]GlcNAc(b1-2)Man(a1-6)]Man(b1-4)GlcNAc(b1-4)[Fuc(a1-6)]GlcNAc
# Summary of the method: as §1
# [38] = target: Fuc(a1-2)Gal(b1-4)[Fuc(a1-3)]GlcNAc(b1-2)Man(a1-6)[Fuc(a1-2)Gal(b1-4)[Fuc(a1-3)]GlcNAc(b1-2)Man(a1-3)]Man(b1-4)GlcNAc(b1-4)[Fuc(a1-6)]GlcNAc
# Summary of the method: as §1
# [39] = target: Fuc(a1-2)Gal(b1-4)[Fuc(a1-3)]GlcNAc(b1-2)[Fuc(a1-2)Gal(b1-4)[Fuc(a1-3)]GlcNAc(b1-4)]Man(a1-3)[Fuc(a1-2)Gal(b1-4)[Fuc(a1-3)]GlcNAc(b1-2)Man(a1-6)]Man(b1-4)GlcNAc(b1-4)GlcNAc
# Summary of the method: as §1
binder,measurement,setting,value
"Siglec-7-SA-PE-180 (Homo sapiens), Q9Y286 (protein) MLLLLLLPLLWGRERVEGQKSNRKDYSLTMQSSVTVQEGMCVHVRCSFSYPVDSQTDSDPVHGYWFRAGNDISWKAPVATNNPAWAVQEETRDRFHLLGDPQTKNCTLSIRDARMSDAGRYFFRMEKGNIKWNYKYDQLSVNVTALTHRPNILIPGTLESGCFQNLTCSVPWACEQGTPPMISWMGTSVSPLHPSTTRSSVLTLIPQPQHHGTSLTCQVTLPGAGVTTNRTIQLNVSYPPQNLTVTVFQGEGTASTALGNSSSLSVLEGQSLRLVCAVDSNPPARLSWTWRSLTLYPSQPSNPLVLELQVHLGDEGEFTCRAQNSLGSQHVSLNLSLQQEYTGKMRPVSGVLLGAVGGAGATALVFLSFCVIFIVVRSCRKKSARPAADVGDIGMKDANTIRGSASQGNLTESWADDNPRHHGLAAHSSGEEREIQYAPLSFHKGEPQDLSGQEATNNEYSEIKIPK",glycan array binding signal (z-score),Fuc(a1-2)Gal,-0.063
same,glycan array binding signal (z-score),Fuc(a1-2)Gal(b1-3)GalNAc,-0.259
same,glycan array binding signal (z-score),[1],-0.317
same,glycan array binding signal (z-score),[2],-0.497
same,glycan array binding signal (z-score),[3],-0.083
same,glycan array binding signal (z-score),[4],-0.254
same,glycan array binding signal (z-score),[5],-0.345
same,glycan array binding signal (z-score),Fuc(a1-2)Gal(b1-3)GlcNAc,-0.199
same,glycan array binding signal (z-score),[6],-0.335
same,glycan array binding signal (z-score),[7],-0.488
same,glycan array binding signal (z-score),[8],-0.174
same,glycan array binding signal (z-score),[9],-0.26
same,glycan array binding signal (z-score),[10],0.035
same,glycan array binding signal (z-score),[11],-0.293
same,glycan array binding signal (z-score),[12],-0.106
same,glycan array binding signal (z-score),[13],-0.054
same,glycan array binding signal (z-score),[14],0.128
same,glycan array binding signal (z-score),[15],-0.018
same,glycan array binding signal (z-score),[16],-0.086
same,glycan array binding signal (z-score),[17],1.25
same,glycan array binding signal (z-score),[18],0.111
same,glycan array binding signal (z-score),[19],0.199
same,glycan array binding signal (z-score),[20],-0.177
same,glycan array binding signal (z-score),[21],-0.392
same,glycan array binding signal (z-score),[22],0.426
same,glycan array binding signal (z-score),Fuc(a1-2)Gal(b1-4)Glc,-0.474
same,glycan array binding signal (z-score),Fuc(a1-2)Gal(b1-4)Glc6S,0.053
same,glycan array binding signal (z-score),Fuc(a1-2)Gal(b1-4)GlcNAc,-0.302
same,glycan array binding signal (z-score),[23],0.028
same,glycan array binding signal (z-score),[24],-0.13
same,glycan array binding signal (z-score),[25],-0.228
same,glycan array binding signal (z-score),[26],-0.374
same,glycan array binding signal (z-score),[27],-0.204
same,glycan array binding signal (z-score),[28],0.796
same,glycan array binding signal (z-score),[29],-0.428
same,glycan array binding signal (z-score),[30],-0.106
same,glycan array binding signal (z-score),[31],-0.204
same,glycan array binding signal (z-score),[32],-0.525
same,glycan array binding signal (z-score),[33],-0.066
same,glycan array binding signal (z-score),[34],0.151
same,glycan array binding signal (z-score),[35],-0.361
same,glycan array binding signal (z-score),[36],-0.133
same,glycan array binding signal (z-score),[37],-0.011
same,glycan array binding signal (z-score),[38],-0.132
same,glycan array binding signal (z-score),[39],0.051

# From the supplement of paper PMC8728848
